Experiment in all cases: NCI tumour cell line growth inhibition, 48 h
Assay [1] relates to HOP-92 NSCLC.
For assay [2], the system named is OVCAR-5 ovarian.
Assay [3] deals with BT-549 breast.
The subject of assay [4] is MDA-MB-435.
For assay [5], the system named is NCI-H460 lung.
Assay [6] concerns OVCAR-4 ovarian.
In assay [7] the test system is SR leukemia.
For assay [8], the system named is TK-10 renal.
The test system of assay [9] is COLO 205 colon.
Assay [10] has as its system HCC-2998 colon.
For assay [11], the system named is HCT-15 colon.
Assay [12] deals with RPMI-8226 leukemia.
Assay [13] concerns P388/ADR leukemia.

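Step 1: Grow cells in 96-well plates. Step 2: Expose to compound for 48 hours at 5 concentrations. Step 3: Interpolate endpoints linearly; if unreached, use highest concentration. Abbreviation: GI50, concentration required for 50% inhibition of growth.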 Not every entry of the source has a single result; some have several. The list is limited to them. There may be further records. For part of these data: A record mostly stands for its own series of concentrations, not given here; a value can be the end of its range. For part of these data: The values listed for one entry are repeats across runs, samples, wells, individuals or studies. Marks in square brackets tell the records apart. A, B and so on number the origins entry by entry.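 Definition used: TGI = concentration required for complete inhibition of growth.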

With `CC(=O)OCC1OC(n2c(C)c(C)cc(C#N)c2=S)C(OC(C)=O)C(OC(C)=O)C1OC(C)=O` (stereo not drawn), the GI50 in assay [1] was > 100 µM [sample A, 1 test] and 533 nM [sample B, 1 test]; in assay [2], > 100 µM [sample A, 1 test] and 32.4 nM [sample B, 1 test].
As for `CCc1nc(N)nc(N)c1C#CC(C)c1ccc(-c2ccncc2)cc1Cl` (stereo not drawn), the GI50 in assay [3] is < 5 nM and 164 nM; in [4] it was < 5 nM and 55.5 nM; in [6] it was 117 nM and 2.68 µM; in [7], < 5 nM and 57.5 nM; in assay [8], 605 nM and 58.6 nM. The TGI in assay [5] was 1.02 µM and 10.2 µM.
For `COc1ccc2[nH]c3ccc4cc[n+](CCN5CCC(C6CCN(CC[n+]7ccc8ccc9[nH]c%10ccc(OC)cc%10c9c8c7)CC6)CC5)cc4c3c2c1`, the GI50 in assay [9] is > 50 µM and 657 nM; in assay [10], 152 nM and 4.89 µM; in assay [5], 18.3 nM [1 test] and 256 nM [mean of 2 tests]. The TGI in [11] is 1.92 µM and > 78.6 µM; in assay [5], 174 nM [1 test] and > 100 µM [mean of 2 tests]; in assay [12], 3.01 µM and > 100 µM.
For `CCC/C=C/C=C/C(=O)OC1/C(=C/C(=O)OC)CC2CC(C(C)O)OC(=O)CC(O)CC3CC(OC(C)=O)C(C)(C)C(O)(CC4C/C(=C/C(=O)OC)CC(/C=C/C(C)(C)C1(O)O2)O4)O3` (stereo not drawn), the GI50 in assay [9] is > 12.5 µM [1 test] and 4.16 µM [mean of 3 tests] and 977 nM [mean of 5 tests]; in [13], 1.42 nM [mean of 2 tests] and 2.9 µM [mean of 3 tests].
In the case of `ClCCCN1CCN(CCCl)CC1`, the TGI was 9.66 µM and 424 µM in assay [1]; 39 µM and > 697 µM in assay [7].

Source of the values: PubChem BioAssay (NCI).
